Test results: US20240052055A1 (SIMCERE ZAIMING PHARMACEUTICAL, published 2024)

T1: polypeptide GC3pep of human GPC3 (Ala524-Lys563) (human)
T1 construct: Synthetic peptide made by GL Biochem; also called polypeptide GC3pep protein
T1 peptide: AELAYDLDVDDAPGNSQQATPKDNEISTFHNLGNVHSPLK

B1: VH001 VHH-hFc (Fc fusion)
chain: QLQLVESGGGLVQPGGSLRLSCAASGFTLDVYAIGWFRQAPGKEREGVSYITSGDGIFYADSVKGRFTISRDNAKNTVYLQMNSLKPEDTAVYFCATLKRTTAGGWPIPGRIGGQGTQVTVSS[human IgG1 Fc with changes left out]
notes: VHH recombined with human IgG1 Fc (VHH-hFc); the junction is not described
B2: S001-NB152-101 VHH-hFc (Fc fusion)
chain: QVQLVESGGGLVQAGASLRLSCLGSGRSFGLRAMGWFRQAPGKELEFVAAIGKAGDTTYYTDSVKGRFTISRDNVKNAVYLQMNSLKPEDTAVYVCATAARWEPPTITPGSYRGPGTQVTVSS[human IgG1 Fc with changes left out]
notes: as for B1
B3: S001-NB150-28(cyno+) VHH-hFc (Fc fusion)
chain: QVQLVESGGGLVQPGGSLRLSCAASGSISTYTMAWYRQAPGEQRESVAAISSGGRTDYIDSVKGRFTISRDNAKNMVYLQMNSLKPEDTAVYYCNSADGLKIGTYYFKGLGWGQGTQVTVSA[human IgG1 Fc with changes left out]
notes: as for B1
B4: S001-NB152-72-2 VHH-hFc (Fc fusion)
chain: QVQLVESGGGLVQAGGSLRLSCAASGSILSITAMNWHRQAPGKERELVASITNGGRTNYADSVKGRFTISRDRAKGTLYLQMNNLKPEDTAVYYCYARRWTGGDRPEYESWGQGTQVTVSS[human IgG1 Fc with changes left out]
notes: as for B1
B5: S001-NB150-56 VHH-hFc (Fc fusion)
chain: QVQLVESGGGLVRPGGSLRVSCAASGVDISTYTMAWYRQAPGEQRESVAAISTTGRSIYIDAVQGRFTMSRDNAKNTVYLQMNNLKPEDTAVYYCNSADDLKIGTQYFKGLGWGQGTQVTVSS[human IgG1 Fc with changes left out]
notes: as for B1
B6: Tab003 (Y035 scFv-hFc) (Fc fusion)
chain: DIVMTQTPLSLPVITGEPASISCRSSQSLVHSNGNTYLQWYLQKPGQSPQLLIYKVSNRFSGVPDRFSGSGSGTDFTLKISRVEAEDVGVYYCSQSIYVPYTFGQGTKLEIKRGGGGSGGGGSGGGGSEVQLVQSGAEVKKPGASVKVSCKASGYTFSDYEMHWVRQAPGQGLEWMGAIHPGSGDTAYNQRFKGRVTITADKSTSTAYMELSSLRSEDTAVYYCARFYSYAYWGQGTLVTVSA[human IgG1 Fc with changes left out]
notes: Control antibody: VL-(GGGGS)3-VH of Y035 fused to human IgG1 Fc; also called Y035 scFv-human IgG1 Fc

molecular target: T2, mouse GPC3-His protein (Sino Biological, Cat. No. 50989-M08B) (mouse, UniProt Q8CFZ4 25-558); experiment: SPR (Biacore), antibody captured on Protein A chip
T2 construct: Bought protein; also called mouse GPC3 protein; not shown: His tag
T2 sequence (Q8CFZ4 25-558 limits assumed): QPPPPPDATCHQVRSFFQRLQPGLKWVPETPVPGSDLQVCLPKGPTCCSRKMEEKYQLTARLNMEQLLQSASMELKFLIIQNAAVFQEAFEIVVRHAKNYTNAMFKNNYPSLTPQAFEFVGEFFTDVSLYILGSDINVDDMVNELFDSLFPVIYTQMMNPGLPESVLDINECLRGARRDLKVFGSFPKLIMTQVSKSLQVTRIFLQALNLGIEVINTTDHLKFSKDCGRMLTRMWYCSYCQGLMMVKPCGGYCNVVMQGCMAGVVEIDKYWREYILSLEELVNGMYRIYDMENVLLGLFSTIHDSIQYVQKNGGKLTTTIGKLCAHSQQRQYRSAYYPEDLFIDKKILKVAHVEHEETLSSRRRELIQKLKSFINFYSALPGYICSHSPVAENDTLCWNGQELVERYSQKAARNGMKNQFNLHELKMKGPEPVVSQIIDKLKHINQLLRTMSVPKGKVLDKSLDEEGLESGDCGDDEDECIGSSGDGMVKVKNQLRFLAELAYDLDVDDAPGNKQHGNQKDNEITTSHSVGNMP

Row | Kd [nM] | koff [s⁻¹] | kon [M⁻¹ s⁻¹] | binding result | Binder
1 | 10.2 | 0.00137 | 134000 |  | B1
2 |  |  |  | no binding | B2
3 | 6.42 | 0.0011 | 171000 |  | B3
4 | 3.99 | 0.000872 | 219000 |  | B4
5 | 9.28 | 0.0129 | 1.39e+06 |  | B5

Molecular target: T1, polypeptide GC3pep of human GPC3 …
Experiment: ELISA on coated polypeptide GC3pep, HRP-labeled secondary antibody
Experimental: (§1) After incubation for 2 h at 37° C., the plate was washed 3 times with PBS.

Row | EC50 (read off the curve) [nM] | Binder
6 | ~0.04 | B6
7 | ~0.1 | B4

molecular target: T3, human GPC3 (Gln25-His559)-His protein (Acro, Cat. No. GP3-H52H4) (human, UniProt P51654 25-559); experiment: ELISA; antibody 0.01 nM
T3 construct: Bought protein; also called human GPC3-His protein; human GPC3-his protein; not shown: His tag
Experimental: as §1

Row | OD450 | Binder
8 | 0.506 | B6
9 | 0.495 | B1
10 | 0.406 | B2
11 | 0.396 | B3
12 | 0.194 | B4
13 | 0.21 | B5

molecular target: T2, mouse GPC3-His protein (Sino …); experiment: ELISA; antibody 0.01 nM
Experimental: as §1

Row | OD450 | Binder
14 | 0.046 | B6
15 | 0.05 | B1
16 | 0.23 | B2
17 | 0.554 | B3
18 | 0.278 | B4
19 | 0.29 | B5

molecular target: T4, monkey GPC3-His protein (Acro, Cat. No. GP3-05225) (monkey, UniProt A5A6P7 25-559); experiment: ELISA; antibody 0.01 nM
T4 construct: Bought protein; the soluble protein surely lacks signal peptide and C-terminal anchor region; also called monkey GPC3 protein; not shown: His tag
Experimental: as §1

T4 sequence (A5A6P7 other isoform, or with tags, fused parts or gaps limits assumed): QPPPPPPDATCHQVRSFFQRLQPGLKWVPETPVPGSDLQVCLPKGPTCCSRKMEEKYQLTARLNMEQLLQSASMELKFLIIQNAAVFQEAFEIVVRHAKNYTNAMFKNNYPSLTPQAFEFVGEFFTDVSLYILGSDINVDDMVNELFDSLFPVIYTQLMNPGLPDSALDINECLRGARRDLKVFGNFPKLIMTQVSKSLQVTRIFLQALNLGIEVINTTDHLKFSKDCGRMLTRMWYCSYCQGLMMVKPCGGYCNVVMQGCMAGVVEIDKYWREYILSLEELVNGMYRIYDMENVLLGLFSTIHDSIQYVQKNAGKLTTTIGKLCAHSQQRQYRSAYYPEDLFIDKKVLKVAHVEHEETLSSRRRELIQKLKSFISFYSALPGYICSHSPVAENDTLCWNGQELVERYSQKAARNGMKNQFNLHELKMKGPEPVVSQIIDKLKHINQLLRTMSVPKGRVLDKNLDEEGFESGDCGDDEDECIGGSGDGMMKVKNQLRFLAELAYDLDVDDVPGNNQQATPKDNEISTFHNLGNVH

Row | OD450 | Binder
20 | 0.364 | B6
21 | 0.351 | B1
22 | 0.4 | B2
23 | 0.056 | B3
24 | 0.236 | B4
25 | 0.044 | B5

molecular target: T3, human GPC3 (Gln25-His559)-His protein …; experiment: SPR (Biacore), antibody captured on Protein A chip
Experimental: The sample and running buffer was HBS-EP+ (10 mM HEPES, 150 mM NaCl, 3 mM EDTA, 0.05% surfactant P20) (GE Healthcare; BR-1006-69). The flow cell was set at 25° C. The sample block was set at 16° C. Both were pretreated with the running buffer. […] The association and dissociation processes of the antibody with the antigen protein were recorded, and finally, the chip was regenerated using Glycine pH 1.5 (GE Healthcare; BR-1003-54). […] The dissociation phase was monitored for up to 600 s and triggered by switching from the sample solution to the running buffer. The surface was regenerated by washing with 10 mM glycine solution (pH 1.5) at a flow rate of 30 μL/min for 30 s. The difference in bulk refractive index was corrected by subtracting the responses obtained from the goat anti-human Fc surface. Blank injections were also subtracted (double reference). To calculate the apparent KD and other kinetic parameters, the Langmuir 1:1 model was used.

Row | Kd [nM] | koff [s⁻¹] | kon [M⁻¹ s⁻¹] | Binder
26 | 3.51 | 0.000426 | 122000 | B6

molecular target: T5, human GPC3 on cells (HepG2 endogenous; CHO-K1 recombinant clones CHOK1-hGPC3.1C3, 2B5, 3E9) (human, UniProt P51654 25-554); experiment: FACS on HepG2 cells
T5 construct: Full-length human GPC3 (NCBI NM_004484.3) transfected into CHO-K1; HepG2 expresses GPC3 endogenously; also called CHO-K1-human GPC3 cells; HepG2 cells

Row | EC50 [nM] | Max MFI | Binder
27 | 6.35 | 5170 | B6
28 | 2.39 | 3510 | B1
29 | 0.35 | 3530 | B2
30 | 0.53 | 2680 | B3
31 | 31.7 | 1030 | B4
32 | 3.19 | 699 | B5

molecular target: T5, human GPC3 on cells (HepG2 endogenous; …); experiment: FACS on HepG2 cells; remark: another data set of the same source

Row | EC50 [nM] | Binder
33 | 6.81 | B6

molecular target: T3, human GPC3 (Gln25-His559)-His protein …; experiment: ELISA; antibody 0.0001 nM
Experimental: as §1

Row | OD450 | Binder
34 | 0.107 | B6
35 | 0.051 | B1
36 | 0.05 | B2
37 | 0.05 | B3
38 | 0.084 | B4
39 | 0.149 | B5

molecular target: T2, mouse GPC3-His protein (Sino …); experiment: ELISA; antibody 0.0001 nM
Experimental: as §1

Row | OD450 | Binder
40 | 0.048 | B6
41 | 0.052 | B1
42 | 0.109 | B2
43 | 0.067 | B3
44 | 0.042 | B4
45 | 0.053 | B5

molecular target: T4, monkey GPC3-His protein (Acro, Cat. No. …); experiment: ELISA; antibody 0.0001 nM
Experimental: as §1

Row | OD450 | Binder
46 | 0.048 | B6
47 | 0.048 | B1
48 | 0.051 | B2
49 | 0.043 | B3
50 | 0.046 | B4
51 | 0.043 | B5
